Test results from PubChem BioAssay AID757 (NMMLSC, 2007).
About 520 (0.27%) of roughly 190,000 compounds were called active. This list was built around the results that the source calls inconclusive (neither active nor inactive); the mix of calls is not that of the screen.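 How the source made its calls: active means GTP binding activity at least 20 points away from the 100% control level, either lower or higher; inconclusive means compound flagged as likely green fluorescent, judged across all proteins; inactive means the rest.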

biological target: Ras-related C3 botulinum toxin substrate 1 (Homo sapiens) (UniProt P63000); assay: wildtype Rac1 GTP binding modulators, primary screen, biochemical, GST-Rac1 beads, flow cytometry, multiplex (AID 757); settings: fluorescent GTP binding, at 10 µM, actives lie on both sides, 0 = cold GTP competed, 100 = untreated

Row | SMILES | GTP binding activity (% of control)
1 | O=C(Nc1nnc(CSCc2ccccc2F)s1)c1cccc([N+](=O)[O-])c1 | inconclusive: 93%
2 | NC(=O)C1(N2CCCCC2)CCN(C2CC(=O)N(CCc3ccccc3)C2=O)CC1 (configuration not stated) | inconclusive: 94%
3 | COc1cc2[nH]c(=S)nc(NCc3cccs3)c2cc1OC | active: 60%
4 | CC(=O)Nc1cccc(NS(=O)(=O)c2cccc3nsnc23)c1 | inconclusive: 105%
5 | Nc1ccc(C(=O)Nc2ccc3nc(-c4ccncc4)[nH]c3c2)cc1 | inconclusive: 85%
6 | O=S(=O)(Cc1ccccc1)NCC1CCCO1 (configuration not stated) | inactive: 105%
7 | Cc1nn(CC(=O)c2ccc(Cl)cc2Cl)c(C)[n+]1N | inconclusive: 103%
8 | COCCOC(=O)C1=C(C)Nc2nc(C)nn2C1c1ccccc1 (configuration not stated) | inconclusive: 104%
9 | CCOc1ccc(OCC)c(NC(=O)CCSCCc2ccccn2)c1 | inactive: 101%
10 | CN(C)C(=O)c1nc2ccc(Cl)cn2c1CNCc1ccccc1OC(F)(F)F | inactive: 96%
11 | O=C(O)CCc1ccc(-c2cccs2)o1 | inconclusive: 90%
12 | Fc1cccc(NC(=S)NNc2c3ccccc3nc3ccccc23)c1 | inconclusive: 87%
13 | COC(=O)CN(C#N)c1nc(NC(C)C)nc(NC(C)C)n1 | inactive: 100%
14 | COc1cccc(C(=O)COc2cccc(NC(=O)c3ccco3)c2)c1 | inconclusive: 94%
15 | CCCN(CC(=O)Nc1cc(Cl)cc(Cl)c1)CC(=O)Nc1ccc(F)c(F)c1F | inactive: 100%
16 | Cc1ccc(C(=O)Nc2ncc(Cc3ccc(SC(F)F)cc3)s2)cc1 | inactive: 99%
17 | O=C(COC(=O)/C=C/c1cccs1)Nc1ccccc1Cl | inactive: 91%
18 | CC(C)c1cc(C(=O)Nc2ccc3c(c2)OCO3)no1 | inconclusive: 105%
19 | CCNS(=O)(=O)c1ccc(CCC(=O)NCCC2=CCCCC2)cc1 | inactive: 99%
20 | Cn1[nH]c(C(F)(F)F)cc1=O | inactive: 100%
21 | Cc1ccc(Br)cc1S(=O)(=O)N1CCN(c2ccccc2)CC1 | inactive: 102%
22 | CCOc1ccccc1OCCn1nnc2ccccc21 | inconclusive: 97%
23 | COc1ccc(-c2ccc(SCc3ccccn3)nn2)cc1OC | inconclusive: 86%
24 | CCN(CC)CCCNCC(=O)Nc1ccc2c(c1)CCC2 | inactive: 96%

Row | SMILES | GTP binding activity (% of control)
25 | COC(=O)C1=C(N)OC2=C(C(=O)CC(C)(C)C2)C1c1cccnc1 (configuration not stated) | inconclusive: 110%
26 | COc1cc(/C=C/c2ccc3cccc([N+](=O)[O-])c3n2)ccc1OCC(=O)O | inactive: 80%
27 | C=CCn1c(-c2cccn(Cc3ccc(Cl)cc3Cl)c2=O)n[nH]c1=S | inconclusive: 106%
28 | NS(=O)(=O)c1ccc(N=Nc2c(=O)[nH]n3c(=O)c4c([nH]c23)CCCC4)cc1 | inconclusive: 92%
29 | COc1ccc(N2C(=O)CC(Sc3nccc(C)n3)C2=O)cc1 (configuration not stated) | inconclusive: 103%
30 | CCc1ccc(NC(=O)CNC(=O)c2cn(-c3ccccc3OC)c(=O)c3ccccc23)cc1 | inconclusive: 94%
31 | CCOc1ccc(CC(=O)NCC2(N3CCCCC3)CCCCC2)cc1 | inconclusive: 84%
32 | O=C1OC(c2ccccc2)=NC12CC2c1ccc(Cl)cc1 (configuration not stated) | inconclusive: 102%
33 | CC(=O)Nc1ccc(S(=O)(=O)Nc2ccc(C)c([N+](=O)[O-])c2)cc1 | inconclusive: 91%
34 | COc1cc(C)c(S(=O)(=O)NCc2cccs2)cc1C | inconclusive: 92%
35 | O=C(Nc1ccc2c(c1)Cc1ccccc1-2)c1cccnc1 | inactive: 96%
36 | COC(=O)CSc1nnc(CNC(=O)c2cccc(C)c2)n1-c1ccccc1OC | inconclusive: 105%
37 | CCN(CC)C(=O)Cn1nnc(-c2ccc(S(C)(=O)=O)cc2)n1 | inactive: 100%
38 | COc1ccc(CCN(C)c2ccc(S(=O)(=O)N3CCCC3)cc2[N+](=O)[O-])cc1OC | inactive: 102%
39 | COc1ccccc1NC(=O)CSc1nc2n[nH]c(C)c2c(=N)n1-c1ccccc1Cl | inconclusive: 79%
40 | C/C(=N\NC(=O)Cc1csc(N2CCOCC2)n1)c1ccc(Cl)c(Cl)c1 | inconclusive: 92%
41 | O=C(NCCO)C(O)C(O)C(=O)NCCO (configuration not stated) | inactive: 103%
42 | O=C(O)c1ccccc1S(=O)CCO (configuration not stated) | inconclusive: 107%
43 | CCOC(=O)c1nn(-c2ccccc2)c(=O)cc1SC(C)C | inactive: 97%
44 | COc1ccc(/C=C(/C#N)C(=O)Nc2ccc(O)cc2)cc1C(=O)O | inconclusive: 73%
45 | COCCNc1nc2c(c(=O)n(Cc3ccc(OC)cc3)c(=O)n2C)n1C | inactive: 94%
46 | COc1ccc(CC(=O)OCC(=O)Nc2cccnc2Cl)cc1OC | inactive: 96%
47 | O=C(Nc1cc(Cl)c(O)c(Cl)c1)C1CCCO1 (configuration not stated) | inconclusive: 103%
